Out of some 300,000 compounds screened, about 1,200 (0.4%) were called active. This list was built around the results that the source calls inconclusive (neither active nor inactive); the mix of calls is not that of the screen. The call rests on the fitted dose curve; in most records, active means well fitted inhibition curve with a large enough effect; inconclusive means small, poorly fitted or top-dose-only effect, or another doubt; inactive means no such curve, though single readings can be large or run the other way. Where the call is inconclusive, the potency comes from a doubtful curve fit.
molecular target: Lysosomal alpha-glucosidase (Homo sapiens) (UniProt P10253); assay: qHTS Assay for Inhibitors and Activators of Human alpha-Glucosidase Cleavage of Glycogen; settings: recombinant GAA, glycogen substrate, Amplex Red glucose oxidase fluorescence; activity change, negative = inhibition: at 76.4 µM (top of the series) unless noted;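 on activity change, negative = inhibition: 0% = full enzyme reaction and -100% = no-enzyme basal signal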
How it was run: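 Natural-substrate format: glycogen cleavage by 4 nM human enzyme, glucose read by Amplex Red coupling (Ex 573, Em 610 nm). Normalized to enzyme and no-enzyme controls.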
Potency means the concentration at half of the fitted maximal effect.

Structure (SMILES) | Potency | activity change, negative = inhibition
CCOC(=O)c1c(C)oc2c1c(C(c1cccnc1)N1CCOCC1)c(O)c1ccccc12 (stereo not drawn) | inconclusive: 12.5 µM [inhibitor, partial curve] | –
Oc1c(Cl)cc(Cl)cc1CNc1ccccn1 | inconclusive: 6.31 µM [inhibitor, single point] | –
CC(C)(C)C(=O)[C@@H]1[C@@H]2C(=O)N(c3ccc4c(c3)OCCO4)C(=O)[C@@H]2C2c3ccccc3C=CN21 (stereo partly drawn) | inconclusive: 50.1 µM [inhibitor, single point] | –
CC(=O)NCCOC(=O)Nc1sc(=S)n(C)c1C | inconclusive: 39.5 µM [inhibitor, single point] | –
COc1ccc(N2CCN(S(=O)(=O)c3ccc4c(c3)NC(=O)C(C)C(=O)N4)CC2)cc1 (stereo not drawn) | – | inactive: 7.77% [at 76.3 µM]
O=C(Nc1ccc(Cl)cc1)c1cnn2c1NC(c1ccccc1)=CC2c1ccccc1 (stereo not drawn) | – | inactive: 0.91% [at 76.3 µM]
CCOc1ccc(Cl)cc1C(c1c(C)[nH][nH]c1=O)c1c(C)[nH][nH]c1=O | inconclusive: 50.1 µM [inhibitor, single point] | –
O=C(c1ccc2ccccc2n1)N1CCN(c2ccccc2O)CC1 | inconclusive: 39.5 µM [inhibitor, single point] | –
S=C(NCc1ccco1)Nc1ccc(Cl)c(Cl)c1 | inconclusive: 19.8 µM [inhibitor, partial curve, poor fit] | –
Cc1cc(F)ccc1NC(=O)c1csc2c1CCC(C)C2 (stereo not drawn) | inconclusive: 1.58 µM [inhibitor, full curve] | –
CCC(=O)N1c2ccccc2NC2=C(C(=O)CCC2)C1c1ccc(N(C)C)cc1 (stereo not drawn) | inconclusive: 39.5 µM [inhibitor, single point] | –
CCOc1cc(C(c2c(C)[nH]n(-c3ccccc3)c2=O)c2c(C)[nH]n(-c3ccccc3)c2=O)ccc1O | inconclusive: 35.5 µM [inhibitor, partial curve] | –
Cc1nn(-c2cc(N3CCCC3)ccc2[N+](=O)[O-])c(=O)c2ccccc12 | – | inactive: -2.56%
COc1cccc(/C=N/NC(=S)Nc2cccc(C(=O)O)c2)c1O | inconclusive: 31.6 µM [inhibitor, single point] | –
Cc1ccc(S(=O)(=O)Nc2ccccc2CNc2c(C)n(C)n(-c3ccccc3)c2=O)cc1 | active: 28.2 µM | –
CCc1nnc(N/N=C/c2cccs2)n1N | inconclusive: 4.43 µM [inhibitor, single point] | –
CCc1ccc2oc(-c3cc(N=Cc4cccc(OC)c4O)ccc3O)nc2c1 | inconclusive: 14 µM [inhibitor, partial curve] | –
Cc1cccc(N2CCN(Cc3cc(=O)n4ccsc4n3)CC2)c1C | – | inactive: 0.84%
CN=c1scc(-c2ccc(F)cc2)n1/N=C/c1ccc(O)c(O)c1 | active: 5.62 µM | –
COc1cccc(F)c1C(=O)NC(=O)Nc1ccc2nc(C)oc2c1 | inconclusive: 28.2 µM [inhibitor, single point] | –
c1ccc(-n2cnc3cc(NCc4ccccn4)ccc32)cc1 | inconclusive: 35.5 µM [inhibitor, single point] | –
CC(=O)N1CCN(c2ccc(NCc3ccc4c(c3)OCO4)cc2)CC1 | active: 22.2 µM | –
CCSS(=O)(=O)c1cccc2cccnc12 | inconclusive: 44.7 µM [inhibitor, partial curve] | –

Structure (SMILES) | Potency | activity change, negative = inhibition
CCN(CCNC(=O)C1CCN(Cc2nc(-c3cccc(Cl)c3)oc2C)CC1)c1ccccc1 | inconclusive: 99.2 µM [activator, partial curve, poor fit] | –
O=S1(=O)CC/C(=N\Nc2ccc(F)cc2)c2ccsc21 | inconclusive: 25.1 µM [inhibitor, partial curve] | –
C(=N\Nc1ncnc2ccccc12)/c1ccccc1 | inconclusive: 35.5 µM [inhibitor, single point] | –
Cc1cc2n(n1)SC(Nc1ccccc1)N2 (stereo not drawn) | inconclusive: 56.2 µM [inhibitor, single point] | –
Cc1ccn2c(Nc3ccc4c(c3)OCCO4)c(-c3cccs3)nc2c1 | inconclusive: 8.91 µM [inhibitor, partial curve] | –
Cc1ccc(NC(=O)C(CC(C)C)NS(=O)(=O)c2ccc3c(c2)oc(=O)n3C)c(C)c1 (stereo not drawn) | – | inactive: 16.7% [at 76.3 µM]
COC(=O)N(C)CCCC1(C)C(=O)N(C)c2ccc(O)cc21 (stereo not drawn) | inconclusive: 20 µM [inhibitor, partial curve] | –
CCOC(=O)CN1C(=O)C2Cc3ccccc3CN2C1=S (stereo not drawn) | inconclusive: 31.6 µM [inhibitor, single point] | –
CC(=O)Nc1ccc(C(=O)CSc2nccc(=O)[nH]2)cc1 | inconclusive: 11.2 µM [inhibitor, single point] | –
Cc1cc(-c2nc(C)c(C(=O)NNS(=O)(=O)c3ccc(Cl)cc3Cl)s2)no1 | inconclusive: 6.31 µM [inhibitor, full curve] | –
CC(C)=CCc1c(O)ccc2c1OC(c1ccc(O)c(O)c1)CC2=O (stereo not drawn) | inconclusive: 31.6 µM [inhibitor, partial curve] | –
O=C(c1cccc(OC2CCN(Cc3ccc(F)cc3)CC2)c1)N1CCCC1 | inconclusive: 50.1 µM [inhibitor, single point] | –
COc1ccc(CNC(=O)Nc2cccs2)cc1OC | active: 10 µM | –
C=CCn1c(SCC(=O)c2ccc(O)c(O)c2)nnc1-c1cccnc1 | inconclusive: 50.1 µM [inhibitor, single point] | –
Cc1ccc2oc(=O)c(/C=C(\O)c3ccccc3)nc2c1 | inconclusive: 3.14 µM [inhibitor, partial curve] | –
Cc1ccccc1NC(=S)NNC(=O)c1ccncc1 | inconclusive: 7.94 µM [inhibitor, full curve] | –
COc1cc(/C=N/N2CCN(c3ccccc3)CC2)cc(OC)c1OC(C)=O | inconclusive: 31.6 µM [inhibitor, single point] | –
Nc1nc2ccccc2n1C(=O)c1ccccc1 | – | inactive: -4.08%
CC1N(C)c2cccc3cccc(c23)N1C | active: 12.5 µM | –
Cc1sc(NC(=O)CN2CCOCC2)c(C(=O)c2ccccc2)c1C | inconclusive: 3.14 µM [inhibitor, single point] | –
CCN1CCCc2cc(CN(CCN3CCOCC3)C(=S)Nc3ccc(OC)c(OC)c3)ccc21 | inconclusive: 3.14 µM [inhibitor, partial curve] | –
O=c1ccc2[n+]([O-])c3ccc(O)cc3oc-2c1 | inconclusive: 22.4 µM [activator, partial curve] | –
O=C(Cn1ncc2ccc(Cl)cc21)NCc1ccc(F)cc1 | – | inactive: -2.77% [at 76.3 µM]

Structure (SMILES) | Potency | activity change, negative = inhibition
COc1ccc(-n2cc(-c3ccccc3)c3c(NN4CCOCC4)ncnc32)cc1 | inconclusive: 14.1 µM [inhibitor, partial curve] | –
Cc1ccc(S(=O)(=O)NNC(=S)NCCc2ccccc2)cc1 | inconclusive: 25.1 µM [inhibitor, partial curve] | –
COc1ccc(CNC(=O)C2CC(c3cccc(OC)c3)=NO2)cc1 (stereo not drawn) | – | inconclusive: 33.4% [activator]
N=c1n(CCN2CCCCC2)c2ccccc2n1CC(=O)c1ccc(Cl)c(Cl)c1 | inconclusive: 25.1 µM [inhibitor, single point] | –
CNC(=O)C1C(=S)NC(N)=C(C#N)C1c1ccccc1 (stereo not drawn) | active: 22.2 µM | –
COc1ccc2nc(-c3cccc(N)c3)[nH]c2c1 | – | inactive: -2.62%
COc1ccc(-n2c(O)c(/C=N/NS(=O)(=O)c3ccc(C)c([N+](=O)[O-])c3)c3ccccc3c2=O)cc1OC | inconclusive: 5.62 µM [inhibitor, full curve, poor fit] | –
COc1ccc(NC(C)c2cc(Cl)ccc2O)cc1 (stereo not drawn) | inconclusive: 28 µM [inhibitor, single point] | –
O=C(Cn1cc(S(=O)(=O)Cc2cccc(Cl)c2)c2ccccc21)NCCc1ccccc1 | – | inactive: -6.05% [at 76.3 µM]
CCCC(=O)Nc1nc(C)c(-c2csc(Nc3ccc(Cl)cc3)n2)s1 | inconclusive: 25.1 µM [inhibitor, single point] | –
COc1ccc(CC(=O)Nc2c3c(nn2C(C)(C)C)CS(=O)(=O)C3)cc1OC | inconclusive: 50.1 µM [inhibitor, single point] | –
C/C(=C\c1ccccc1)C(=O)n1nnc2ccccc21 | inconclusive: 3.14 µM [inhibitor, partial curve] | –
COc1ccc(CNc2oc(-c3ccccc3)nc2C#N)cc1 | inconclusive: 11.2 µM [inhibitor, partial curve] | –
CC1=NN(c2nc(-c3ccccc3)cs2)C(=O)C1 | inconclusive: 15.8 µM [inhibitor, single point] | –
CCCCOc1ccc(C(=O)N2CCN(CCc3ccncc3)CC2)cc1 | – | inactive: -6.13% [at 76.3 µM]
CCOc1cc(/C=C2\CCCC(C(=O)C(F)(F)F)=C2O)ccc1O | inconclusive: 12.5 µM [inhibitor, partial curve] | –
CC(=O)Oc1cc2c(C(=O)NCCN3CCOCC3)c(C)oc2c2ccccc12 | inconclusive: 44.7 µM [inhibitor, single point] | –
CC(C)(C)C1CCC(=NNc2nc3ccccc3[nH]2)CC1 (stereo not drawn) | inconclusive: 24.9 µM [inhibitor, partial curve] | –
O=C(/C(=N/N=C/c1ccc(O)c(O)c1)c1ccccc1)c1ccccc1 | inconclusive: 10 µM [inhibitor, partial curve] | –
CC(C)(Oc1ccc(Cl)cc1)C(=O)NC1=NN(c2ccccc2)C(=O)C1 | inconclusive: 35.2 µM [inhibitor, single point] | –
Cc1ccc2c(c1)C(c1ccc(F)cc1)N(C(=O)COc1ccc(Cl)cc1Cl)CC(=O)N2 (stereo not drawn) | – | inactive: 3.87% [at 76.3 µM]
C/C(=N\Nc1ccc(C(=O)O)cc1)c1ccc2c(c1)Nc1ccccc1S2 | active: 11.2 µM | –
